The test relates to human tumor cell lines. As to the kind of experiment: cells. The text has this: Only two hundred years ago, many diseases ravaged humankind. Many of these diseases now have been controlled or eradicated. In the development of the means to treat or control these diseases, work with the appropriate common experimental animals was of critical importance. With the various types of cancers, and with the HIV virus, such work is presently ongoing. The research for the treatment of various types of cancer is coordinated in the United States by the National Cancer Institute (NCI). NCI, as a government entity, has been charged with assisting anti-cancer research. To establish whether a substance has anti cancer activity, NCI has established a variety of protocols, one of which involves testing the candidate substance against a cell line panel containing 60 human tumor cell lines. This protocol has been verified and is generally accepted throughout the scientific community. This protocol and the established statistical means of evaluating the results obtained therefrom have been fully described in the literature. See Principles & Practice of Oncology PPO Updates, Volume 3, Number 10, Oct. 1989, by Michael R. Boyd, M.D., Ph.D., for an indepth description of the test protocol. The statistical analysis is explained in "Display and Analysis of Patterns of Differential Activity of Drugs Against Human Tumor Cell Lines: Development of Means Graph and COMPARE Algorithm" Journal of the National Cancer Institute Reports Vol. 81, No. 14, Pg. 1088, Jul. 14, 1989, by K. D. Paull et al. Both of these references are incorporated herein by this reference thereto.
Biological Testing; Data Display and Analysis; Screening Data Summary. Freshly isolated halistatin 2 was tested in the NCI's human tumor, disease-oriented in vitro primary screen, and data calculations performed. Table 3 is a composite prepared from mean graphs constructed from the averaged GI50 values from quadruplicate screenings of Halistatin 2.

This is an account of results in patent publication US5352804A, “Isolation and structure of Halistatin 2” (Arizona Board of Regents, a body corporate, acting on …, priority 1993, dated 1994).

Read-outs that look alike come from different tables or passages of the source.

Usually GI50 stands for the concentration giving 50% growth inhibition.

On to `C=C1CC2CCC34CC5OC6C(O3)C3OC(CCC3OC6(O)C5O4)CC(=O)OC3C(CC4OC(CCC1O2)CC(C)C4=C)OC1CC2OC4(CC2OC1C3C)CC1OC2(CC(C)C3OC5CC(C(O)CO)OC5CC3O2)CC(C)C1O4` (centres unmarked) [halistatin 2], for which the “Log10 TGI, Delta” value worked out at 1.05 and the “Log10 TGI, Range” value came to 1.26. The GI50 (Homo sapiens, read-out: Log10 GI50, MG-MID (converted)) is 0.676 nM. Also, where the note is “Homo sapiens, read-out: Log10 TGI, MG-MID”, the IC (TGI) is 6.17 nM. The GI50 (Homo sapiens, read-out: overall panel mean GI50) worked out at 0.68 nM.
